Source: PubChem BioAssay AID602393 (Broad Institute, 2012)
Among all 350,000 compounds or so, about 7,000 (2%) were called active. Inconclusive results, whose numbers are uncertain, are shown with a selection of clear calls. Rule as the data show it: active = activation above about 40%; inconclusive = no clear call, values can overlap the other calls; inactive = below that.

Experiment: raisers of Bmi1 knock-in reporter signal – mouse ES cells, Bmi1 luciferase knock-in, single point, esBAF inhibitor project, primary screen (AID 602393);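 also: 0% = median of the plate's neutral control wells and 100% = double that signal; a rise in the Bmi1 reporter signal indicates esBAF inhibition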
Conditions: 24 h, at 12.5 µM, stronger effect = higher value, 100% = twice the neutral-well signal
For `C[C@@H]1CN([C@H](C)CO)S(=O)(=O)c2ccc(C#Cc3ccc(F)cc3)cc2O[C@@H]1CN(C)S(=O)(=O)c1ccc(F)cc1`, the reporter increase was inactive: -4.22%. For `COC(=O)c1ccsc1NC(=O)CCc1ccccc1`, the reporter increase was active: 48.1%. For `O=C(COC(=O)c1ccc(O)cc1O)NC12CC3CC(CC(C3)C1)C2`, the reporter increase was inconclusive: 41.8%. In the case of `Cc1noc(C)c1S(=O)(=O)N(C)C[C@@H]1OCCCC[C@@H](C)Oc2ccc(NC(=O)Nc3ccc4c(c3)OCO4)cc2C(=O)N([C@H](C)CO)C[C@@H]1C`, the reporter increase is reported as inactive: 1.31%. For `C[C@H](CO)N1C[C@H](C)[C@@H](CN(C)C(=O)C2CCC2)Oc2ncc(-c3cccnc3)cc2C1=O`, the reporter increase was inactive: -2.22%. With `O=C(NC1CCCCCC1)c1ccc(CS(=O)(=O)Cc2ccc(F)cc2)o1` the reporter increase was inconclusive: 43.6%. For `O=C(COc1ccc(/C=N/NC(=O)c2cc3ccccc3o2)cc1Br)Nc1ccccc1`, the reporter increase was inconclusive: 48.5%. For `CC=Cc1ccc2n(c1=O)C[C@@H]1[C@@H](CO)[C@H](C(=O)N[C@H](C)c3ccccc3)[C@H]2N1Cc1cccnc1` (mixture of isomers), the reporter increase was inactive: -9.39%. For `Clc1ccc(CSc2snnc2-c2ccccc2)c(Cl)c1`, the reporter increase was inconclusive: 44.9%. In the case of `C[C@H](CO)N1C[C@H](C)[C@H](CN(C)S(=O)(=O)c2cn(C)cn2)OCCCC[C@H](C)Oc2ccc(NS(=O)(=O)c3cccs3)cc2C1=O`, the reporter increase is reported as inactive: -14.7%. With `O=C(O)c1cc(N/N=C/c2c(O)ccc3ccccc23)ccc1Cl` the reporter increase was inconclusive: 47.3%. With `CN(C)c1nc(N)nc(CSc2nc3cc(Cl)ccc3o2)n1` the reporter increase was inconclusive: 47.3%. With `O=C(N/N=C/c1ccsc1)c1c[nH]c2ccccc12` the reporter increase was inconclusive: 46.9%. For `Cc1ccc(-c2csc(C(O)c3ccccc3)n2)cc1C` (stereo not given), the reporter increase was active: 52.6%. In the case of `COc1ccccc1-c1ccc2c(c1)[C@H]1[C@H](CCN1S(=O)(=O)c1cn(C)cn1)[C@H](CO)N2`, the reporter increase is reported as inconclusive: 41.8%. With `O=C(Nc1ccc2c(c1)CCC2)c1cccc(OC(F)F)c1` the reporter increase was inconclusive: 64.9%. For `O=[N+]([O-])c1nn(-c2ccc3c(c2)OCCO3)n(O)c1=NC1CCCCC1`, the reporter increase was inconclusive: 43.9%. In the case of `COc1cc(/C=N/NC(=O)c2cc3ccccc3[nH]2)ccc1O`, the reporter increase is reported as inactive: 22.6%. In the case of `O=C(OCc1cc(=O)n2ccsc2n1)c1ccccc1O`, the reporter increase is reported as active: 74%. For `CC(=O)c1ccc(N2CCN(c3ccc(S(=O)(=O)NCCCN(C)C)cc3[N+](=O)[O-])CC2)cc1`, the reporter increase was inactive: 8.81%. For `CC1(C(=O)OCC(=O)Nc2ccccc2)CC1(Cl)Cl` (stereo not given), the reporter increase was inconclusive: 50.7%. With `COc1ccc(NC(=O)CSC2CCCCC2)cc1` the reporter increase was inconclusive: 40.2%. In the case of `COc1cccc(C(=O)Nc2ccc3c(c2)OC[C@@H](C)N(CCc2ccccc2)C[C@@H](C)[C@H](OC)CN(C)C3=O)c1`, the reporter increase is reported as active: 64%. With `COc1ccccc1NC(=O)CN1CCN(CC(=O)Nc2ccc(F)cc2F)CC1` the reporter increase was inconclusive: 48.9%. In the case of `O=C(NCc1ccccc1)c1ccc(-c2ccccc2F)o1`, the reporter increase is reported as inconclusive: 46.2%. In the case of `O=C(c1ccc(-c2ccccc2Cl)o1)N1CCCC(C(F)(F)F)C1` (stereo not given), the reporter increase is reported as active: 50.9%. For `O=C(Nc1nccs1)c1ccc(Br)s1`, the reporter increase was inconclusive: 50.5%. For `CCS(=O)(=O)c1ccc2oc(Nc3ccccc3Cl)nc2c1`, the reporter increase was inconclusive: 46.6%. For `CN1CCCC1CCNS(=O)(=O)c1ccc(Br)cc1` (stereo not given), the reporter increase was inactive: -9.9%. For `NC(=O)C1CCN(c2nc(-c3ccc4ccccc4c3)cs2)CC1`, the reporter increase was inconclusive: 44.7%. With `C[C@@H]1CCCCO[C@@H](CN(C)C(=O)CCC(F)(F)F)[C@H](C)CN([C@@H](C)CO)C(=O)c2cc(NS(=O)(=O)c3ccccc3)ccc2O1` the reporter increase was inactive: 5.61%. In the case of `CCc1ccc(-c2cc(C(=O)NCc3ccccn3)c3ccccc3n2)cc1`, the reporter increase is reported as inconclusive: 43.2%. For `CC(=O)Nc1cccc(-c2csc(C(O)c3ccccc3)n2)c1` (stereo not given), the reporter increase was active: 48.9%. For `COc1ccccc1N=c1oc2c(OC)cccc2cc1C(=O)NCc1ccco1`, the reporter increase was active: 52.2%. With `O=C(Nc1ccc2c(c1)OCO2)N1CCCc2ccccc21` the reporter increase was inconclusive: 32.2%. For `CCCC#Cc1ccc2c(c1)COc1c3ccccc3nn1-2`, the reporter increase was inactive: 1.22%. In the case of `COc1ccc(CCNC(=O)c2nnn(CC(=O)Nc3ccc(C)cc3C)c2N)cc1OC`, the reporter increase is reported as inactive: -6.14%. In the case of `COc1cccc(-c2nn(C)c3sc(C(=O)Nc4ccc5c(c4)OCCO5)cc23)c1`, the reporter increase is reported as inconclusive: 40.3%. With `CC(C)(C)C(=O)Nc1ccc(-c2csnn2)cc1` the reporter increase was inconclusive: 41.6%. In the case of `Cc1cc(C)cc(NC(=O)N2CCc3ccccc3C2)c1`, the reporter increase is reported as active: 44.7%. With `Cc1ccnc(NC(=O)CCCNC(=O)c2ccc(Cl)cc2)c1` the reporter increase was inconclusive: 40.2%. In the case of `C/C=C/c1ccc([C@@H]2[C@@H](C#N)N(c3ncc(CC)s3)[C@H]2CO)cc1`, the reporter increase is reported as inactive: -0.411%. For `Cc1cccc(Nc2nc(-c3ccc(F)cc3)cs2)n1`, the reporter increase was inconclusive: 45.7%. With `Cc1ccc(-c2nc3ccc(Br)cn3c2Cc2ccsc2)cc1` the reporter increase was inconclusive: 42.7%. In the case of `Cc1nc2cc(NS(=O)(=O)c3c(C)c(C)cc(C)c3C)ccc2s1`, the reporter increase is reported as inactive: 14.3%. With `COCC1CCN(C(=O)c2cc(COc3ccc(OC)c4ccccc34)on2)C1` (stereo not given) the reporter increase was inconclusive: 40.7%. In the case of `NC(=O)CSc1nc(-c2ccccc2Cl)ns1`, the reporter increase is reported as inconclusive: 40.1%. In the case of `O=C(COC(=O)c1ccccc1O)Nc1ccc(OC(F)F)cc1`, the reporter increase is reported as inconclusive: 40.1%. For `CC(=O)Nc1ccccc1-c1nc2cc(C#N)c(C#N)cc2[nH]c1=O`, the reporter increase was inconclusive: 44.1%. With `CCOC(=O)c1ccc(NC(=O)Nc2ncccc2C)cc1` the reporter increase was inconclusive: 55.4%. With `Cc1ccc(CSc2ccc(-c3ccco3)nn2)cc1` the reporter increase was inconclusive: 41%. In the case of `CC(C)C(=O)Nc1ccc(C=C2C=Cc3ccccc32)cc1`, the reporter increase is reported as inconclusive: 50.6%. In the case of `CC1(C)CC(=O)c2sc(NC(=O)c3ccc4ncsc4c3)nc2C1`, the reporter increase is reported as inconclusive: 42.9%. For `Nc1ccc(C(=O)OCc2nc3ccccc3[nH]2)cc1`, the reporter increase was active: 54.6%. In the case of `COc1ccc(C(=O)c2oc3ccccc3c2N)cc1`, the reporter increase is reported as inactive: 29%.
